Sequences with one replicate were seen in a single cluster, so their values are uncertain.
What follows are sequences tested on ATP (assay: switch fluorescence ratio, 500 uM ATP over buffer (Cy3 cluster intensity, sum of 5 cycles each) (fold (ratio)); higher = stronger signal-on switching upon ATP binding; sequences stand for … in TCGTCGGCAGCGTCAGATGTGTATAAGAGACAGTTTTTTTTTTTTTTTTTTTTTTTTT…TC). Conditions: aptamer strand: ATP DNA aptamer (quencher-CACCTGGGGGAGTATTGCGGAGGAAGG + anchor), 100 nM annealed; ATP concentration: 500 uM; one replicate.
Procedure, shortened: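 The quencher-labelled ATP aptamer, at 100 nM, was annealed to Cy3-labelled switching-strand clusters on a modified Illumina MiSeq flow-cell. The clusters were imaged in selection buffer, then after 15 min with 500 uM ATP at 22 °C, and this buffer/ATP cycle ran five times with NaOH stripping and re-annealing between runs. Per-cluster fluorescence ratios, summed target-cycle over summed buffer-cycle Cy3 intensity, were averaged per switch-domain sequence. Clusters outside 100-1000 RFU were excluded.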
For TGCGGTTGCA, the switch fluorescence ratio was 1.01. In the case of TGCGTAATGT, the switch fluorescence ratio is reported as 0.992. For TGCGTACCTC, the switch fluorescence ratio was 1.12. TGCGTCTGTA was tested, and the switch fluorescence ratio was 0.998. With TGCGTGAAGA the switch fluorescence ratio was 1.03. Sequence TGCGTGCA has a switch fluorescence ratio of 1.06. TGCGTGTGGC was tested, and the switch fluorescence ratio was 1.01. TGCGTTACGA showed a switch fluorescence ratio of 1.04. TGCGTTCGGG gave a switch fluorescence ratio of 0.91. TGCGTTGCCC was tested, and the switch fluorescence ratio was 1.01. TGCTAAAGTA was tested, and the switch fluorescence ratio was 1. With TGCTAAGCGG the switch fluorescence ratio was 0.977. TGCTAATATT showed a switch fluorescence ratio of 0.972. TGCTACGGAG was tested, and the switch fluorescence ratio was 1.04. TGCTACTATG showed a switch fluorescence ratio of 0.982. TGCTAGGTTC was tested, and the switch fluorescence ratio was 1.02. Sequence TGCTATACA has a switch fluorescence ratio of 1.08. In the case of TGCTATGACT, the switch fluorescence ratio is reported as 0.954. TGCTATTTGT was tested, and the switch fluorescence ratio was 1.01. Work on TGCTCAGAGT yielded a switch fluorescence ratio of 0.995. TGCTCGGTCG was tested, and the switch fluorescence ratio was 1.02. TGCTCGGTGT gave a switch fluorescence ratio of 0.996. In the case of TGCTCGTACA, the switch fluorescence ratio is reported as 1.02. TGCTCGTCC was tested, and the switch fluorescence ratio was 0.984. Work on TGCTCTGTTG yielded a switch fluorescence ratio of 0.981. TGCTGAGCTT gave a switch fluorescence ratio of 0.966. TGCTGATAGG was tested, and the switch fluorescence ratio was 1.03. TGCTGATCGG showed a switch fluorescence ratio of 0.994. TGCTGCTGTT gave a switch fluorescence ratio of 1.05. Work on TGCTGGGAGT yielded a switch fluorescence ratio of 0.981. TGCTGGGGCC showed a switch fluorescence ratio of 1.02. TGCTGGTGCT showed a switch fluorescence ratio of 0.959. TGCTGTATGG was tested, and the switch fluorescence ratio was 1.02. Work on TGCTGTGAGT yielded a switch fluorescence ratio of 0.981. For TGCTGTGGC, the switch fluorescence ratio was 0.993. With TGCTGTTTTC the switch fluorescence ratio was 1.03. For TGCTTAATGG, the switch fluorescence ratio was 0.981. TGCTTACGC showed a switch fluorescence ratio of 1.06. Work on TGCTTAGGCT yielded a switch fluorescence ratio of 0.978. TGCTTAGGGC gave a switch fluorescence ratio of 1.03. Sequence TGCTTATCT has a switch fluorescence ratio of 1.03. With TGCTTATCTC the switch fluorescence ratio was 1.03. With TGCTTCCCTT the switch fluorescence ratio was 1.03. TGCTTGAGCG showed a switch fluorescence ratio of 0.997. With TGCTTGCACC the switch fluorescence ratio was 1.03. With TGCTTGGAGA the switch fluorescence ratio was 1.02. TGCTTGTATC showed a switch fluorescence ratio of 1.02. In the case of TGGAAACGCC, the switch fluorescence ratio is reported as 1.03. TGGAAATGGA was tested, and the switch fluorescence ratio was 0.987. TGGAACCCTT gave a switch fluorescence ratio of 0.999. TGGAAGTTCA showed a switch fluorescence ratio of 0.953. For TGGAATCCAG, the switch fluorescence ratio was 0.981. With TGGAATCTT the switch fluorescence ratio was 1. Sequence TGGACAACGT has a switch fluorescence ratio of 1. TGGACAAGCG was tested, and the switch fluorescence ratio was 1.01. TGGACCCCAT showed a switch fluorescence ratio of 1.02. Sequence TGGACCCCTT has a switch fluorescence ratio of 1.04. TGGACGCGTT was tested, and the switch fluorescence ratio was 0.995. Work on TGGACTAGCG yielded a switch fluorescence ratio of 0.991. Work on TGGACTGTTG yielded a switch fluorescence ratio of 0.969. With TGGAGAGCTT the switch fluorescence ratio was 1.02. Sequence TGGAGCCCCT has a switch fluorescence ratio of 0.964. Work on TGGAGGCAGG yielded a switch fluorescence ratio of 1.1. In the case of TGGAGTGGCT, the switch fluorescence ratio is reported as 0.964. TGGAGTGTT gave a switch fluorescence ratio of 0.998. With TGGATAGCAT the switch fluorescence ratio was 1.02. In the case of TGGATAGGTT, the switch fluorescence ratio is reported as 1.01. TGGATATACT was tested, and the switch fluorescence ratio was 0.994. Sequence TGGATCGGGC has a switch fluorescence ratio of 1.01. TGGATGACTA gave a switch fluorescence ratio of 1.01. TGGATGCTTT was tested, and the switch fluorescence ratio was 0.976. TGGATGGTAT was tested, and the switch fluorescence ratio was 1.01. TGGATGGTCA was tested, and the switch fluorescence ratio was 0.968. For TGGATGTCAC, the switch fluorescence ratio was 1.06. With TGGATGTGCG the switch fluorescence ratio was 0.989. TGGATTAAGA gave a switch fluorescence ratio of 1.01. Sequence TGGATTACGC has a switch fluorescence ratio of 1.08. Sequence TGGATTCGAC has a switch fluorescence ratio of 0.955. With TGGCAAATTC the switch fluorescence ratio was 1. With TGGCAACTTT the switch fluorescence ratio was 0.996. In the case of TGGCAGA, the switch fluorescence ratio is reported as 0.978. With TGGCAGCACG the switch fluorescence ratio was 1.02. For TGGCAGGCTT, the switch fluorescence ratio was 0.977. Work on TGGCATGATG yielded a switch fluorescence ratio of 1.01. For TGGCATTACC, the switch fluorescence ratio was 1.14. For TGGCCAACTC, the switch fluorescence ratio was 1.13. Work on TGGCCAGTGT yielded a switch fluorescence ratio of 1.04. TGGCCCGG gave a switch fluorescence ratio of 0.995. TGGCCGCTGG was tested, and the switch fluorescence ratio was 1.01. TGGCCGGCCG was tested, and the switch fluorescence ratio was 0.993. Work on TGGCCGTGTG yielded a switch fluorescence ratio of 0.991. Sequence TGGCCTCCTG has a switch fluorescence ratio of 1.03. In the case of TGGCCTTTCA, the switch fluorescence ratio is reported as 1.01. Work on TGGCGACCTT yielded a switch fluorescence ratio of 1.08. Sequence TGGCGCATCT has a switch fluorescence ratio of 0.991. For TGGCGCCAGG, the switch fluorescence ratio was 0.981. TGGCGCGACG showed a switch fluorescence ratio of 0.99. With TGGCGCGCTC the switch fluorescence ratio was 0.97. In the case of TGGCGCGTAA, the switch fluorescence ratio is reported as 1.03. With TGGCGCTATG the switch fluorescence ratio was 1.01. Sequence TGGCGGTATT has a switch fluorescence ratio of 1.01. For TGGCGTTAGT, the switch fluorescence ratio was 1.07. TGGCTATTAT gave a switch fluorescence ratio of 0.978. With TGGCTCGACG the switch fluorescence ratio was 0.992. Sequence TGGCTCTGAA has a switch fluorescence ratio of 1.02. With TGGCTGAGA the switch fluorescence ratio was 1.01. Sequence TGGCTGATGG has a switch fluorescence ratio of 0.98. TGGCTTAAGT gave a switch fluorescence ratio of 0.996. TGGCTTAGCA was tested, and the switch fluorescence ratio was 1.02. With TGGCTTTCTA the switch fluorescence ratio was 1. Sequence TGGGAACCCC has a switch fluorescence ratio of 1.37. Sequence TGGGAATCGC has a switch fluorescence ratio of 0.995. Sequence TGGGAATGAT has a switch fluorescence ratio of 1.01. Work on TGGGACCATA yielded a switch fluorescence ratio of 1.01. TGGGACGGG showed a switch fluorescence ratio of 1.01. TGGGACTAAT showed a switch fluorescence ratio of 0.991. With TGGGAGCACA the switch fluorescence ratio was 1.02. Work on TGGGAGGTAG yielded a switch fluorescence ratio of 0.953. In the case of TGGGATATAA, the switch fluorescence ratio is reported as 0.953. In the case of TGGGATCTTA, the switch fluorescence ratio is reported as 1.01. With TGGGATGTT the switch fluorescence ratio was 1.01. TGGGATTCAG gave a switch fluorescence ratio of 1.02. Sequence TGGGATTTCG has a switch fluorescence ratio of 0.995. Work on TGGGCACGAA yielded a switch fluorescence ratio of 1.02. In the case of TGGGCAGTAG, the switch fluorescence ratio is reported as 1.05. With TGGGCATGAT the switch fluorescence ratio was 0.977. TGGGCCACTA gave a switch fluorescence ratio of 0.996. For TGGGCCAGAA, the switch fluorescence ratio was 1.03. In the case of TGGGCGCACG, the switch fluorescence ratio is reported as 1.02. TGGGCGGGCT showed a switch fluorescence ratio of 0.984. TGGGCTAGCG gave a switch fluorescence ratio of 0.979. Sequence TGGGCTATTA has a switch fluorescence ratio of 1.04. Work on TGGGCTGTTG yielded a switch fluorescence ratio of 0.992. TGGGGACACG showed a switch fluorescence ratio of 0.965. In the case of TGGGGACGCA, the switch fluorescence ratio is reported as 0.986. With TGGGGAGCAG the switch fluorescence ratio was 0.994. Work on TGGGGCACGA yielded a switch fluorescence ratio of 1.01. TGGGGCCTAT showed a switch fluorescence ratio of 0.936. TGGGGCGTGT gave a switch fluorescence ratio of 1.02. TGGGGGCAAC was tested, and the switch fluorescence ratio was 0.985. Work on TGGGGGCCAG yielded a switch fluorescence ratio of 0.97. Sequence TGGGGTGATT has a switch fluorescence ratio of 1. For TGGGGTGGAA, the switch fluorescence ratio was 1.03. In the case of TGGGTCCTAT, the switch fluorescence ratio is reported as 1.01. In the case of TGGGTCGCGA, the switch fluorescence ratio is reported as 0.989. TGGGTGAGAA was tested, and the switch fluorescence ratio was 0.977. Work on TGGGTGCGAA yielded a switch fluorescence ratio of 0.986. TGGGTTCCA was tested, and the switch fluorescence ratio was 0.99. In the case of TGGGTTTCAC, the switch fluorescence ratio is reported as 0.973. TGGTAAAAGA showed a switch fluorescence ratio of 1.04. TGGTAAGGGA was tested, and the switch fluorescence ratio was 1. Sequence TGGTACTATT has a switch fluorescence ratio of 1.01. Work on TGGTAGACAG yielded a switch fluorescence ratio of 0.991. For TGGTAGACTT, the switch fluorescence ratio was 0.976. With TGGTAGCCG the switch fluorescence ratio was 0.99. Sequence TGGTAGGTAT has a switch fluorescence ratio of 0.959. Work on TGGTAGTGC yielded a switch fluorescence ratio of 0.999. In the case of TGGTATTTGA, the switch fluorescence ratio is reported as 0.961. With TGGTCAACTC the switch fluorescence ratio was 1.03. TGGTCAAGCG gave a switch fluorescence ratio of 1.04. Sequence TGGTCATAA has a switch fluorescence ratio of 1.03. TGGTCCGTAC showed a switch fluorescence ratio of 1.15. TGGTCCTATA gave a switch fluorescence ratio of 1.02. TGGTCCTGG was tested, and the switch fluorescence ratio was 1.03. Sequence TGGTCGGCTA has a switch fluorescence ratio of 1.08. For TGGTCTAAGA, the switch fluorescence ratio was 1. Work on TGGTCTTA yielded a switch fluorescence ratio of 0.999. TGGTGGCATC was tested, and the switch fluorescence ratio was 0.947. TGGTGTCCCG gave a switch fluorescence ratio of 0.987. In the case of TGGTGTTACC, the switch fluorescence ratio is reported as 1.04. With TGGTTACAGC the switch fluorescence ratio was 0.967. Work on TGGTTAGGAA yielded a switch fluorescence ratio of 1.03. In the case of TGGTTCCGTG, the switch fluorescence ratio is reported as 1.12. Sequence TGGTTCTACA has a switch fluorescence ratio of 1.05. Work on TGGTTGGAG yielded a switch fluorescence ratio of 1.2. With TGGTTGGAGA the switch fluorescence ratio was 1. For TGGTTGTGTC, the switch fluorescence ratio was 1.03. Work on TGGTTGTGTG yielded a switch fluorescence ratio of 0.982. TGGTTTTACT was tested, and the switch fluorescence ratio was 0.992. Sequence TGTAAAGACG has a switch fluorescence ratio of 0.908. For TGTAAAGATA, the switch fluorescence ratio was 0.99. TGTAAAGCAG showed a switch fluorescence ratio of 1.01. TGTAAAGGAC was tested, and the switch fluorescence ratio was 1.04. TGTAAATT showed a switch fluorescence ratio of 0.983. TGTAAGATAT showed a switch fluorescence ratio of 0.97. For TGTAAGGCAG, the switch fluorescence ratio was 1. With TGTAATGTAA the switch fluorescence ratio was 1. Work on TGTAATGTAG yielded a switch fluorescence ratio of 1. TGTACACAC showed a switch fluorescence ratio of 1.39. In the case of TGTAGATAAT, the switch fluorescence ratio is reported as 1. TGTAGCTGCG was tested, and the switch fluorescence ratio was 0.963. Work on TGTAGGCATC yielded a switch fluorescence ratio of 0.981. For TGTAGGGATC, the switch fluorescence ratio was 1.1. TGTAGGGCAG gave a switch fluorescence ratio of 0.971. Sequence TGTAGGTAGC has a switch fluorescence ratio of 0.997. Work on TGTAGGTTTT yielded a switch fluorescence ratio of 1.02. Sequence TGTAGTATAT has a switch fluorescence ratio of 1.23. With TGTAGTGCAA the switch fluorescence ratio was 1.04. Work on TGTATACTGA yielded a switch fluorescence ratio of 1.02. For TGTATCTGGT, the switch fluorescence ratio was 0.985. Sequence TGTATCTTGA has a switch fluorescence ratio of 0.953.

— the supplement of paper PMC10126150
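Note: ATP exposure 15 min at 22 °C before imaging.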
